# The list shows a part of the results. At the low end of the ranking the order means little. The protein was read in a cell extract, so binding may be indirect.
# Target: T1, HNF4alpha2 (COS-7 nuclear extract) (UniProt P41235)
# T1 sequence: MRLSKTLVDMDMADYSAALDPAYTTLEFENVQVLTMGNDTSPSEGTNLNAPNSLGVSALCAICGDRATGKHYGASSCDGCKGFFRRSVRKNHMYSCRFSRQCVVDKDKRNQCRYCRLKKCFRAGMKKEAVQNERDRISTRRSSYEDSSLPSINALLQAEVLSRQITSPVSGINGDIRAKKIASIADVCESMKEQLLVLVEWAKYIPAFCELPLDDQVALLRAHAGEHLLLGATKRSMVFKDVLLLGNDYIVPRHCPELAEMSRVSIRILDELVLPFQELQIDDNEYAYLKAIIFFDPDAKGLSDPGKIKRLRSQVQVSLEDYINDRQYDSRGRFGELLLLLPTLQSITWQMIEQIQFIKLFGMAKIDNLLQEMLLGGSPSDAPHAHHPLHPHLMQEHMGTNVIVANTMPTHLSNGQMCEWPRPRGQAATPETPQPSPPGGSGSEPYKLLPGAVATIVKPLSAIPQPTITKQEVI
# Experiment: protein-binding microarray
# Conditions: COS-7 nuclear extract on double-stranded Agilent 4x180k PBM; binding buffer, salt, pH and temperature not given; high values mean tight binding; double strand, one strand shown; sequences stand for … in …GCCTAGGGAGATTAGAGTATCGGTCGA
row,Sequence,binding signal (log2 normalized intensity)
1,AGGATGAGAATCCACCTGCCTGCTTGGCCT,-1.17
2,GGAATGCTATTTGCATTGACACAACCCAAC,-1.12
3,GCAGTGATCAGTGTTGAGAATCCCTCCCCT,3.59
4,TGGCATTCTTGAGCTACCGCCTGAACCTTG,2.27
5,AACCCTGGCCACTCCCTGATAGAGAACAAG,-1.23
6,AGAGAAACAAATCTGCTTTCTACCCTGAGG,-0.952
7,CTGCTAACAGATAAAGGGTGGTAAAGATGT,0.867
8,CACAGAGCAAAGGTCATGCATAGAAGTATG,4.18
9,AGGCTGAAGGGAAGCTCTGGGAGTGCCCTT,1.93
10,TTTGCAACCTTTGATAACCTACAACCTTCT,0.304
11,ACAAAGTCTATGCTAAGATGGTCTCAGGTG,1.45
12,TCAGCAGAAGGCCCCAGGTGAACCAGGGTG,-1.01
13,TTTTCCTCGGGTGTCTCCGAGATAAGGCGT,0.759
14,GTGACCTTAGACCCCTGAATAGGTCTTGGA,3.12
15,ATATTATCATTGCCTCTGGTATGCAGAAAA,1.47
16,CTGGCAAAGCCATGAAGCAATTCTGAGCCC,-0.972
17,GTCTGTGTTCACATAGGGGCCTTTAGCACC,1.27
18,CACAAGGAATGCCCTTATCTCCCAGCCACC,1.75
19,AGTTGGTATTTAGTAAATATTAGGCAAGCT,-1.14
20,CCACAGCAGAAGGCAACAGCTCTGGAGGAT,-1.28
21,GGCATAGTTGCATATCTGGAATTTCAAAGG,1.52
22,CATAACTCAGCGGGAGGCAAGATAAGGGTA,-1.17
23,GCTCAAGCCTGTTCCGACCTTAGTACTCTG,4.08
24,CTCATTCTGATATGCACTGTCAGTTTTTCC,1.13
25,TTGTACATGGGAATAGACATTCCAGAAATA,-0.165

row,Sequence,binding signal (log2 normalized intensity)
1,CCTCTGTAGGGCAGCAGCCGGCCTCTTAAC,-1.13
2,ATGCTTCAGTGAGCCTTGACCTTCATGCTA,2.25
3,GCTTCAGGAGTCCACTGTGTTCTTGTTTGC,1.64
4,TGGGACTTAATCCTTGTCTGTTTGGCCTTA,2.11
5,ACACAAAGACATTGCCTGGCATTATCAGTG,-1.05
6,AGAGGGGGTTTGTTTTTTGCCCTTTGTACC,8.01
7,GATTGGACTCTGCACTCCAGCCTGGGTGAC,3.07
8,ATGTTGACCCGAGTGCCCTTTGGCAAACAG,2.81
9,GATCTCCGTGTTTGGAATTGTGTCACTCCC,1.97
10,TGTGTTGGCAAGAGATCTGCAGGGTTAAAT,1.33
11,GTGACCAAGAATGTCTAACCTCCTGGGAAT,-1.09
12,GACAGGGTAATTTACAGAACTCTTCGAAGA,-0.991
13,ACCTTTGACCCTTCTCTGGGAGAAAGGGAG,2.99
14,ACATTCTTTAGCATATTACACCTGTAGCTT,-0.577
15,GCAAGGGCCCCCACTAGAGAGACCGTCCCT,2.39
16,ATCACTCAAGAAATGGCAGTTTTAAGAGCT,-1.1
17,AGTTTGAACTTTGACTTATTTAGTAGTGGC,3.74
18,CTTGGATCCTCAGGGTTCATAGATGATAGT,1.33
19,TGAAAGCTGCTTCCCAGTTGCTCTGGAGTG,-1.11
20,AACAACCCATCCTTGACACATCTGATTAGA,-0.719
21,TTATTGATAACCCTATAAGGTAGAATCTAT,-1.06
22,GACCTGTATCTTGTGGTGACCTCTTATCTC,3.39
23,CTGCAGAGAACAGCAGCTATCAGTGGTCCG,1.03
24,TGTTGTTGATTTAACATTTGTGATCTGGCA,1.64
25,CCTTGCAATGCTGGAGGGACTGTGATGAAG,0.699

row,Sequence,binding signal (log2 normalized intensity)
1,CGATAATAGAGATTGCTTAATGCAAACTCC,-0.71
2,TGGACAGTGTCTGACTAGAGTGGAGTGAAG,-1.36
3,TTCCTGACCCCTCCTCCCCCCGCCGCATCT,5.91
4,CTAAGATCCTAGGAGAGCCAAATCTTAAGG,-1.04
5,CACAACAGAAAGCAAGAGCACAAGAACAAA,-1.18
6,GCAGGGAGGACACAGTGTTATTTGCTGAGG,-0.84
7,CCTCAGAACCATTTGTGAGGATGGGCAGTC,0.734
8,TAGGGAAAAGATAAGGCGTAGTTCAGAGAA,-1.18
9,CAGAGGCCAGAAAAGCAAACCGAGATCAAG,-1.24
10,CAAGATTCCTTGAGCATTCCAAAAAGCTTT,-0.357
11,AAGCGTGCACCCCAGGTACGGAGGACAGCC,-1.01
12,CTAAATGGCAATGGCTGCAGCTCTTCCACG,-1.18
13,ATTGAGATGGTAACCACACCAAGGGGCCCC,-1.06
14,GGTGGACTTTGGCCGTGAAGCCGTCCTGTC,5.03
15,GCCACTTTCACAAATCATTACTATCTGCTG,-1.16
16,AATGGCAACATGTGGGCAAATAGGATTAGG,-0.651
17,CTTTTGTGTGTTTACATAACCTGCCCAAAG,1.05
18,TTTTGTGTGCTAGATACTGGAGATATGTTG,1.48
19,CTCAATTATAACTCATGTTCAAACAGTGGT,1.53
20,CAGAGGACAGGCTAATGAGATAATGCTGGT,-1.16
21,TAAAACGTGGTTCAGGGAGCGAATAAATAC,-1.19
22,CAACTGGAAGTCCAGCATTCTTTTCCCCAT,2.23
23,GCCCTTTATCTCCTCTCTTCTCACTTTTTA,1.82
24,AAGGCAGAGGAAAGCCCTAGCTGACTGCGT,-0.911
25,CTTCAGGTCAAGAGGGCCTCTGCTTGTCTT,0.43

row,Sequence,binding signal (log2 normalized intensity)
1,CTACTACTTGACCTTTGAAACATATCCAGA,5.48
2,TCACGTGGCCCTGGCATTTGGCTCAAAGGC,-1.18
3,TCACTGGGAGGGTGGGTTATCAGTAAGAGC,0.687
4,TGCCTGAGATTCCTTCAAAGATTGTGAGAC,1.15
5,ATTTTTAGGCTTGTTTATTCAGAGTTAGCT,-1
6,TATCCAGGCCACGCTGCTAATCCTACTTTA,-1.04
7,AAACCTTATCTATTTGCTCCCAATTTCTAC,1.08
8,CTTCTTGTACCTCTGGTGATTACCAGTTAT,1.41
9,AGAAGCTTGGTATGTCTGATGAATAGAAAG,0.62
10,AATGAGAATGGCCAGAGTTCCTGTGCAAGC,-1.12
11,ATGTCAACATCAGGGTGCCAGCAGGTGGTC,1.52
12,CCTGTTTTACAGGACATAGTCCTCTGCATA,1.01
13,TTGTTATTTATTGGCCAGTAGCTCTGAGTT,1.24
14,GCCCTGCTCAGGGAATGTGGGTCCACATTC,2.46
15,AGTAACCTGACCCCCAGTGGAATGTGCCCT,3.87
16,GGCATGAGGTTCTTGTAAGGTTCTTGTATC,1.69
17,GACACGGGCAGGTGAGAGGGCTCTGTCTGC,-1.11
18,ATTCATTCACCTTTCGCCCTTTGTCCTATG,5.24
19,CCTTTGTGTGAATCGACCTTTAGCACCGTA,6.52
20,CACCATTAGACTCTGCCCTCCTTAAGACCT,1.81
21,GAAAGTACAGTGATGTTTGTCAAATGCTTC,0.376
22,ATTCTGTACTTCAACCAGGTTCTCTTTACT,-0.339
23,ACCTGCCTCTCTCTCATGTCTGTACTGGGA,1.81
24,TATTATATTGTGGGTTCTTGCCCTTTGGTC,6.21
25,AAACGCTCCCAATGGCTCCACCAGTCAGTC,-1.13

row,Sequence,binding signal (log2 normalized intensity)
1,GGATAACCTTCCAGACAGAGAGGTCAGCAA,0.18
2,TAGAGCAGCAGTAGGCTCTCGGGCCAGCTG,-0.976
3,GAGAATGCTAGACAAGGGAATTACTCTTCT,-1.06
4,ATCCTGCAGTTCCTGATCTTTGACCTGGAG,5.61
5,CTTGTAAGCCACAGTACAAAGGTGAGCTTT,3.57
6,GTTTGTCTTACTGTGTTGTCGTATTTACTC,2.15
7,TGGGACAATGAAGCCTAAATGATAAGGGTT,-0.00453
8,GCATTGCCGTTCAGGGCCACGGGAAAACCT,-0.969
9,ACTAGCAGATTCTGTGTGGTAAAAGCACTG,0.313
10,ATCGCCTGAATGACCACATGCCCTCAGTAC,1.88
11,CTATAGTTTCTGTTTTGATCTTAAGATGAT,1.81
12,ACAGACAGACATTCAGAAACTGTCACTTAA,-1.13
13,TTTACATAACCTGCCCAAAGTGGGGCTGCT,-1.02
14,GCGGGTGCAGCTTCCACCTGCAAGGAAATA,-1.03
15,TGTGGGAGGGAAGGAGCCTAACTTTGATAG,-1.11
16,TCACCTTTGCCCTGTCAGTCTCTCAATGAT,3.36
17,TCAGCACTGAGAGATTACATTTGACTGAGG,-0.895
18,CCGTGCCCCCTTTTGCTTTCCGTTAGGCTA,1.63
19,GCACCAATGATCAAAGAGACACAATCCCTA,-1.12
20,AAGTGTCTTGGAGAGAAAAAATCAGAGAGC,-1.03
21,GAGGCTGACATCTCTCTGGCCTGTGGGGAG,-1.02
22,TTAGCAGATAAATCTAGGCCTAGGCATTGA,-0.468
23,TTTGGAATTGTGTCACTCCCCAGGAATGTG,1.89
24,ACTTAACTACTACACTAAAAAAAAAAAAAT,-1.13
25,TCATGTGAAGACACTGAGGAAAAGCTGTCT,-1.11

row,Sequence,binding signal (log2 normalized intensity)
1,TCCATTTCTAGACACCAAACACAGTTGCTG,-1.07
2,TCGACCTTTGTGGGCTTCAGACATTGCAAA,0.574
3,TGCCCTTTGCCCTCACTGGTAGAAGGCAGC,4.58
4,TTGCCCTTCTTGGATGCCCTTCCCTAACCC,2.66
5,AGCGTACGCAGGGCGGCCGGCGGAGCGCCG,-1.3
6,TGACCTTGGACTCTGCCCTTGGCCTACTTA,4.3
7,CCATGCAAATTGCTGACTTTCTGTGTCTTG,0.751
8,TACATAACCACCACTGGGCAATTGGTTTCC,0.59
9,GTAGTTACCTGATGAAGCAATAGGAATCAC,-0.373
10,GGGCGTGAACTGTGACTTTTATCTTAGGTA,1.24
11,CTATCAGGAAACTCTTTCCTAACAGTGAAT,-1.09
12,TCTTAGAAGATAAAGTGTCTCCCTCTGCAG,0.902
13,TCTATCAAAGGAGAAAAAGTCAACACTTAG,-1.16
14,CAGCAGTAGGCTCTCGGGCCAGCTGTACAA,-1.1
15,AGTTGGAATTTCAGAAGCAGGTCAATAGGG,0.508
16,CTGAGGAAGTGCTGACCTTTGGTCTAAACC,6.27
17,ACTGCTCCCTCTGCTCCCCTGGCCTCACCC,2.66
18,TGACTATAGCGTCTCCTGGCCTCTGTGAAG,-0.808
19,ACTGCAAGGCAAACACTCAAGGTCCAAACA,0.279
20,AGCGGAGCATCCCTCGGGCCGGGAAACGCC,-1.11
